Some of the results follow.
Assays:
Experiment in all cases: glycan array binding signal (z-score within array); higher = stronger binding
Conditions in all cases: glycan notation: IUPAC condensed, linker removed
[1] = target: GlcNAc(b1-3)Gal(b1-4)GlcNAc(b1-3)Gal(b1-4)GlcNAc(b1-3)Gal(b1-4)GlcNAc(b1-2)Man(a1-3)[GlcNAc(b1-3)Gal(b1-4)GlcNAc(b1-3)Gal(b1-4)GlcNAc(b1-3)Gal(b1-4)GlcNAc(b1-2)Man(a1-6)]Man(b1-4)GlcNAc(b1-4)GlcNAc
In short: (§1)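 Glycan array data were curated from 3228 arrays in the Consortium for Functional Glycomics database and kept only where the protein sequence was available. Glycan names were converted to IUPAC-condensed notation, and columns mapping to the same glycan were averaged. The binding signal is a within-array Z-score, averaged across arrays of the same protein sequence at different concentrations or buffers and across linkers. Negative Z-scores can be read as non-binding.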

[2] = target: GlcNAc(b1-3)Gal(b1-4)GlcNAc(b1-3)Gal(b1-4)GlcNAc(b1-3)Gal(b1-4)GlcNAc(b1-2)Man(a1-3)[GlcNAc(b1-3)Gal(b1-4)GlcNAc(b1-3)Gal(b1-4)GlcNAc(b1-3)Gal(b1-4)GlcNAc(b1-2)Man(a1-6)]Man(b1-4)GlcNAc(b1-4)[Fuc(a1-6)]GlcNAc
In short: as §1

[3] = target: GlcNAc(b1-3)Gal(b1-4)GlcNAc(b1-3)Gal(b1-4)GlcNAc(b1-3)Gal(b1-4)GlcNAc(b1-2)[GlcNAc(b1-3)Gal(b1-4)GlcNAc(b1-3)Gal(b1-4)GlcNAc(b1-3)Gal(b1-4)GlcNAc(b1-6)]Man(a1-6)[GlcNAc(b1-3)Gal(b1-4)GlcNAc(b1-3)Gal(b1-4)GlcNAc(b1-3)Gal(b1-4)GlcNAc(b1-2)Man(a1-3)]Man(b1-4)GlcNAc(b1-4)[Fuc(a1-6)]GlcNAc
In short: as §1

[4] = target: GlcNAc(b1-3)Gal(b1-4)GlcNAc(b1-3)Gal(b1-4)GlcNAc(b1-3)Gal(b1-4)GlcNAc(b1-3)Gal(b1-4)GlcNAc(b1-2)Man(a1-3)[GlcNAc(b1-3)Gal(b1-4)GlcNAc(b1-3)Gal(b1-4)GlcNAc(b1-3)Gal(b1-4)GlcNAc(b1-3)Gal(b1-4)GlcNAc(b1-2)Man(a1-6)]Man(b1-4)GlcNAc(b1-4)GlcNAc
In short: as §1

[5] = target: GlcNAc(b1-3)Gal(b1-4)GlcNAc(b1-3)Gal(b1-4)GlcNAc(b1-3)Gal(b1-4)GlcNAc(b1-3)Gal(b1-4)GlcNAc(b1-2)Man(a1-3)[GlcNAc(b1-3)Gal(b1-4)GlcNAc(b1-3)Gal(b1-4)GlcNAc(b1-3)Gal(b1-4)GlcNAc(b1-3)Gal(b1-4)GlcNAc(b1-2)Man(a1-6)]Man(b1-4)GlcNAc(b1-4)[Fuc(a1-6)]GlcNAc
In short: as §1

[6] = target: GlcNAc(b1-3)Gal(b1-4)GlcNAc(b1-3)Gal(b1-4)GlcNAc(b1-3)Gal(b1-4)GlcNAc(b1-3)Gal(b1-4)GlcNAc(b1-2)[GlcNAc(b1-3)Gal(b1-4)GlcNAc(b1-3)Gal(b1-4)GlcNAc(b1-3)Gal(b1-4)GlcNAc(b1-3)Gal(b1-4)GlcNAc(b1-6)]Man(a1-6)[GlcNAc(b1-3)Gal(b1-4)GlcNAc(b1-3)Gal(b1-4)GlcNAc(b1-3)Gal(b1-4)GlcNAc(b1-3)Gal(b1-4)GlcNAc(b1-2)Man(a1-3)]Man(b1-4)GlcNAc(b1-4)[Fuc(a1-6)]GlcNAc
In short: as §1

[7] = target: GlcNAc(b1-3)Gal(b1-4)GlcNAc(b1-3)Gal(b1-4)GlcNAc(b1-3)GalNAc
In short: as §1

[8] = target: GlcNAc(b1-3)Gal(b1-4)GlcNAc(b1-3)GalNAc
In short: as §1

[9] = target: GlcNAc(b1-3)Gal(b1-4)GlcNAc(b1-3)[GlcNAc(b1-3)Gal(b1-4)GlcNAc(b1-3)]GalNAc
In short: as §1

[10] = target: GlcNAc(b1-3)Gal(b1-4)GlcNAc(b1-6)[Gal(b1-3)]GalNAc
In short: as §1

[11] = target: GlcNAc(b1-3)Gal(b1-4)GlcNAc(b1-6)[GlcNAc(b1-3)Gal(b1-3)]GalNAc
In short: as §1

[12] = target: GlcNAc(b1-3)Gal(b1-4)GlcNAc(b1-6)[GlcNAc(b1-3)]Gal(b1-4)GlcNAc
In short: as §1

GlcNAc(b1-3)GalNAc = target: GlcNAc(b1-3)GalNAc
In short: as §1

GlcNAc(b1-3)Man = target: GlcNAc(b1-3)Man
In short: as §1

[13] = target: GlcNAc(b1-3)[GlcNAc(b1-4)][GlcNAc(b1-6)]GlcNAc
In short: as §1

[14] = target: GlcNAc(b1-3)[GlcNAc(b1-6)]Gal(b1-4)GlcNAc
In short: as §1

[15] = target: GlcNAc(b1-3)[GlcNAc(b1-6)]GalNAc
In short: as §1

[16] = target: GlcNAc(b1-4)Gal(b1-4)GlcNAc
In short: as §1

GlcNAc(b1-4)GlcNAc = target: GlcNAc(b1-4)GlcNAc
In short: as §1

[17] = target: GlcNAc(b1-4)GlcNAc(b1-4)GlcNAc
In short: as §1

[18] = target: GlcNAc(b1-4)GlcNAc(b1-4)GlcNAc(b1-4)GlcNAc(b1-4)GlcNAc
In short: as §1

[19] = target: GlcNAc(b1-4)GlcNAc(b1-4)GlcNAc(b1-4)GlcNAc(b1-4)GlcNAc(b1-4)GlcNAc
In short: as §1

B1: rMpL (Macrolepiota procera) (protein)
chain: MSTQVSSGRTYKITNVIAGTVIDLSGEDNKSIIGYPYHSGKNQQWTFNWTGKAWTLRSASSGSYLGIEGTPAGGTRLVAVNDPFEWHIWRDEANENAFRIFVPFTNYNLDLSGYGDTTPGTPVQLWWTWEGLHQTWTIDRP
How did the “glycan array binding signal (z-score)” value [1] turn out when B1 was run?
The value was -0.27.

And the “glycan array binding signal (z-score)” value [2]?
Its value is -0.137.

What about the “glycan array binding signal (z-score)” value [3] of the same binder?
The value was -0.217.

What about the “glycan array binding signal (z-score)” value [4] of the same binder?
The value was -0.252.

And the “glycan array binding signal (z-score)” value [5]?
Its value is -0.17.

And the “glycan array binding signal (z-score)” value [6]?
The value was -0.175.

And the “glycan array binding signal (z-score)” value [7]?
The value was -0.263.

And the “glycan array binding signal (z-score)” value [8]?
Its value is -0.359.

What about the “glycan array binding signal (z-score)” value [9] of the same binder?
Its value is -0.278.

And the “glycan array binding signal (z-score)” value [10]?
The value was -0.343.

What about the “glycan array binding signal (z-score)” value [11] of the same binder?
Its value is -0.303.

What about the “glycan array binding signal (z-score)” value [12] of the same binder?
Its value is -0.357.

What about the “glycan array binding signal (z-score)” value (GlcNAc(b1-3)GalNAc) of the same binder?
Its value is -0.376.

And the “glycan array binding signal (z-score)” value (GlcNAc(b1-3)Man)?
Its value is -0.225.

And the “glycan array binding signal (z-score)” value [13]?
Its value is -0.397.

What about the “glycan array binding signal (z-score)” value [14] of the same binder?
The value was -0.345.

And the “glycan array binding signal (z-score)” value [15]?
The value was -0.365.

What about the “glycan array binding signal (z-score)” value [16] of the same binder?
The value was 0.163.

And the “glycan array binding signal (z-score)” value (GlcNAc(b1-4)GlcNAc)?
The value was -0.314.

And the “glycan array binding signal (z-score)” value [17]?
The value was -0.382.

What about the “glycan array binding signal (z-score)” value [18] of the same binder?
Its value is -0.298.

What about the “glycan array binding signal (z-score)” value [19] of the same binder?
The value was -0.306.

Reference: the supplement of paper PMC8728848
